Each structure is given as a SMILES string. The whole screen tested about 310,000 compounds, of which about 2,200 (0.71%) showed an effect of 50% or more. Effects have a minus sign here. The list shows a part of the results.

Sequence of human ether-à-go-go-related gene (hERG) potassium channel (Q12809 whole entry, looked up): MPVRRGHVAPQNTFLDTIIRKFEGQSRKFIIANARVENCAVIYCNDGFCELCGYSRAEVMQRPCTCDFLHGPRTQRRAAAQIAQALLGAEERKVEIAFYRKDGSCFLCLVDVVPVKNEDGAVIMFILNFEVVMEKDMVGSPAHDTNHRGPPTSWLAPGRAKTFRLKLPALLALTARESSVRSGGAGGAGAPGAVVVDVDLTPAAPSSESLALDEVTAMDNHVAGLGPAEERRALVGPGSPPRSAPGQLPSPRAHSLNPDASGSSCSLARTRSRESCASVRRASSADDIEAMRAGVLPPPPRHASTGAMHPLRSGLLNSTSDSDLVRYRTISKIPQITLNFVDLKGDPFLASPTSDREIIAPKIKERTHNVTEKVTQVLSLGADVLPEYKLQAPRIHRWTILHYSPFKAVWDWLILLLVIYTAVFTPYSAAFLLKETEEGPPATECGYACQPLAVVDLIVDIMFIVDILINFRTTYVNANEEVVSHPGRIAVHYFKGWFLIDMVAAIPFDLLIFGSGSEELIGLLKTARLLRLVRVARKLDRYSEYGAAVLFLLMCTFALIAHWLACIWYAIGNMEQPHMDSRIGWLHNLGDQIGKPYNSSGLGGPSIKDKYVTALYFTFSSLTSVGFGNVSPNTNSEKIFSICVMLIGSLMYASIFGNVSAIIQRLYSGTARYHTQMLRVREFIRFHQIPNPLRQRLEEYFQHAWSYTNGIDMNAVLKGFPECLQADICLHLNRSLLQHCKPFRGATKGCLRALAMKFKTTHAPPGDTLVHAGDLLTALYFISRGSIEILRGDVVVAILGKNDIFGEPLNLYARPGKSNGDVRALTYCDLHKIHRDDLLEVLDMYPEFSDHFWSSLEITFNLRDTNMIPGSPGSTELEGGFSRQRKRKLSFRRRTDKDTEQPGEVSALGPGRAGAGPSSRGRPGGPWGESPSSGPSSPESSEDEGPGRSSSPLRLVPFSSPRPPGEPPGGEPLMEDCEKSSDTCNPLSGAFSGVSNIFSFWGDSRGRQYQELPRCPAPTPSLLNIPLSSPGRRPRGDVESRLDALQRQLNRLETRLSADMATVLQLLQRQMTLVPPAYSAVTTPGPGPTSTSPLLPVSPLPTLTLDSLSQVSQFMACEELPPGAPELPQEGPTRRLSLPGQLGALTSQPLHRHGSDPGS

This assay addresses human ether-à-go-go-related gene (hERG) potassium channel (human, UniProt Q12809). The experiment in a line: primary screen, population patch clamp on CHO cells stably expressing hERG.
`COc1ccc(CCC(=O)NCc2cccc(C(F)(F)F)c2)cc1`: the “hERG current change (%, negative = inhibition) at 1uM” value was 7.14%.

Regarding `CC1CCN2c3nc4ccccn4c(=O)c3CC3(C(=O)N(C)C(=O)N(C)C3=O)C2C1` (stereo not shown), the “hERG current change (%, negative = inhibition) at 1uM” value is given as 14%.

Take `O=C(CSCC(=O)N1CCOCC1)Nc1nc(-c2ccc3c(c2)OCO3)cs1`: the “hERG current change (%, negative = inhibition) at 1uM” value is reported as 5.51%.

On to `CN1CCN(c2ccc(S(=O)(=O)Nc3ccccc3)cc2[N+](=O)[O-])CC1`, for which the “hERG current change (%, negative = inhibition) at 1uM” value was determined as 2.98%.

In the case of `Cc1ccc(-c2ccnc3c(Cl)c(C)nn23)cc1`, the “hERG current change (%, negative = inhibition) at 1uM” value came to 13.3%.

For `CC(C)CC(=O)Nc1ccc(S(=O)(=O)NCc2ccco2)cc1`, the “hERG current change (%, negative = inhibition) at 1uM” value is reported as -0.695%.

With `O=c1c(-c2ccccc2)c(-c2ccccc2)oc2cc(O)cc(O)c12`, the “hERG current change (%, negative = inhibition) at 1uM” value was 9.38%.

On to `O=C(NC1CCN(Cc2ccccc2)CC1)C1CCN(S(=O)(=O)c2ccc(Cl)cc2)CC1`, for which the “hERG current change (%, negative = inhibition) at 1uM” value was -16.9%.

On to `Cc1ccc(-n2ncc3c2CCCC3NC(=O)c2cnccn2)cc1C` (stereo not shown), for which the “hERG current change (%, negative = inhibition) at 1uM” value was determined as 10.3%.

`Cc1c(Cl)cccc1NC(=O)CSc1nncn1-c1cccnc1`: the “hERG current change (%, negative = inhibition) at 1uM” value amounted to 11.4%.

Turning to `CCC(=O)NC(NC(=S)Nc1cccc2cccnc12)C(Cl)(Cl)Cl` (stereo not shown), the “hERG current change (%, negative = inhibition) at 1uM” value is -0.0107%.

As to `O=C(Nc1nc(-c2ccco2)c(-c2ccco2)s1)c1c(F)cccc1Cl`, the “hERG current change (%, negative = inhibition) at 1uM” value turned out to be 2.82%.

Turning to `COc1cc(C(=O)NNC(=O)c2n[nH]c3ccccc23)cc(OC)c1OC`, the “hERG current change (%, negative = inhibition) at 1uM” value is on record as -2.81%.

For the compound `CC(C)C(=O)N1CCN(CCN=Cc2c(O)n(C)c(=O)n(C)c2=O)CC1`, the “hERG current change (%, negative = inhibition) at 1uM” value is given as 0.286%.

On to `COc1ccc(Cl)cc1NC(=O)CCc1nc(-c2ccccc2F)no1`, for which the “hERG current change (%, negative = inhibition) at 1uM” value worked out at 10.2%.

Take `CS(=O)(=O)N(CC(=O)N1CCCC1)c1cccc(Cl)c1Cl`: the “hERG current change (%, negative = inhibition) at 1uM” value is given as 12%.

Turning to `CC(C)c1ccc(NC(=O)CN2C(=O)NC3(CCCC3)C2=O)cc1`, the “hERG current change (%, negative = inhibition) at 1uM” value is 14.3%.

Consider `COc1ccc(OCCCC(=O)N2CCCc3ccccc32)cc1`, for which the “hERG current change (%, negative = inhibition) at 1uM” value is recorded as 8.67%.

Turning to `O=C(O)c1ccccc1Nc1cc(Cl)c2nonc2c1[N+](=O)[O-]`, the “hERG current change (%, negative = inhibition) at 1uM” value worked out at 17.5%.

With `COc1ccc(-c2noc(CN(C)Cc3ccc(C)o3)n2)cc1`, the “hERG current change (%, negative = inhibition) at 1uM” value is on record as -6.43%.

On to `COc1ccc2[nH]c3c(NCCN(C(C)C)C(C)C)ncnc3c2c1`, for which the “hERG current change (%, negative = inhibition) at 1uM” value is -71.9%.

Regarding `Nc1cc(S(=O)(=O)O)cc([N+](=O)[O-])c1O`, the “hERG current change (%, negative = inhibition) at 1uM” value is on record as -6.35%.

Turning to `CN(C)c1nc2ncn(Cc3ccccc3)c2c(=O)[nH]1`, the “hERG current change (%, negative = inhibition) at 1uM” value came to 6.21%.

For `CCCCN(C(=O)Nc1ccc(OCC)cc1)C1CCN(C(C)=O)CC1`, the “hERG current change (%, negative = inhibition) at 1uM” value is recorded as -9.33%.

For the compound `Cc1ccsc1C1CC(=O)Nc2ccccc2S1` (stereo not shown), the “hERG current change (%, negative = inhibition) at 1uM” value amounted to 12.5%.

For `Cc1ccccc1/C=C1\C(=O)Nc2ccc(F)cc21`, the “hERG current change (%, negative = inhibition) at 1uM” value worked out at 10.4%.

For the compound `COc1cccc(NC(=O)COC(=O)Cc2ccccc2[N+](=O)[O-])c1`, the “hERG current change (%, negative = inhibition) at 1uM” value is on record as 2.98%.

With `COc1ccc2c(=O)c3c(=O)n(Cc4ccco4)c(-c4ccco4)nc3oc2c1`, the “hERG current change (%, negative = inhibition) at 1uM” value was -12.8%.

With `CCN1CCN(C(=O)/C=C/c2ccc3c(c2)OCO3)CC1`, the “hERG current change (%, negative = inhibition) at 1uM” value came to 11.6%.

For `CCN(CC(=O)Nc1c(F)cccc1F)C(=O)CSCC(=O)Nc1cc(C)on1`, the “hERG current change (%, negative = inhibition) at 1uM” value was 9.93%.

For the compound `NCC(=O)NNC(=O)OCC1c2ccccc2-c2ccccc21`, the “hERG current change (%, negative = inhibition) at 1uM” value is recorded as 6.61%.

Consider `Oc1ccc2ccccc2c1/C=N/c1nc2c(s1)CCCC2`, for which the “hERG current change (%, negative = inhibition) at 1uM” value is listed as 8.4%.

On to `Cc1cc(C)n(C(=O)c2ccc(NC(=O)CC(C)C)cc2)n1`, for which the “hERG current change (%, negative = inhibition) at 1uM” value was 2.45%.

`COC(=O)C(C)n1nnc2sc(-c3ccccc3)cc2c1=O` (stereo not shown): the “hERG current change (%, negative = inhibition) at 1uM” value is on record as -1.39%.

In the case of `COc1ccccc1C(=O)Nc1ccccc1N1CCN(C(=O)c2ccc(Cl)cc2)CC1`, the “hERG current change (%, negative = inhibition) at 1uM” value is -85.2%.

Consider `Cc1ccc(S(=O)(=O)c2nc(NCCCn3ccnc3)sc2Cl)cc1`, for which the “hERG current change (%, negative = inhibition) at 1uM” value is reported as -19.3%.

On to `COc1ccc(CCNC(=O)CN(c2ccccc2)S(C)(=O)=O)cc1`, for which the “hERG current change (%, negative = inhibition) at 1uM” value is 20.3%.

For the compound `O=c1c2c3c(sc2ncn1/N=C/c1ccc([N+](=O)[O-])o1)CCCC3`, the “hERG current change (%, negative = inhibition) at 1uM” value came to 15.1%.

Take `CNC(=O)c1ccc(Nc2nnc(-c3ccc(C)c(S(=O)(=O)NCC4CCCO4)c3)c3ccccc23)cc1` (stereo not shown): the “hERG current change (%, negative = inhibition) at 1uM” value was 9.16%.

With `COc1ccc(-c2csc(Cc3nnc4n3CCCCC4)n2)cc1`, the “hERG current change (%, negative = inhibition) at 1uM” value was -19.9%.

Consider `Cc1sc2nc(CSC(C)C(=O)N(C)CC(=O)Nc3ccccc3C(F)(F)F)[nH]c(=O)c2c1C` (stereo not shown), for which the “hERG current change (%, negative = inhibition) at 1uM” value stood at 16.3%.

As for `O=C(Nc1cc(S(=O)(=O)N2CCOCC2)ccc1N1CCCCC1)c1cc(-c2ccccn2)nc2ccccc12`, the “hERG current change (%, negative = inhibition) at 1uM” value turned out to be 10.1%.

Consider `COc1cc(-c2nnc(SCc3cc(=O)oc4cc(C)ccc34)o2)cc(OC)c1OC`, for which the “hERG current change (%, negative = inhibition) at 1uM” value is listed as 5.4%.

Source of the values: paper PMC4336329 (PLoS ONE, 2015).
